Measurements as given in patent US4022909A, “Method of inhibiting the growth of bacteria using quaternary ammonium compounds” (IMC Chemical Group, Inc., priority 1976, dated 1977).

Tested on: bacteria
Experiment: antibacterial activity by the streak plate test (in words)
Assay type: cell-based
Procedure: The compound was tested for antibacterial and antifungal activity by the streak plate test, which is known in the art. The test substance was incorporated into several portions of an agar medium at several known concentrations and the mixtures were placed in Petri dishes. Then streaks of test organisms were applied to the surface of the medium, the dishes were incubated under growth-promoting conditions, and then examined for growth of organisms. The results are reported as the Inhibition End-Point Range, the lower figure signifying a concentration that allows growth and the higher figure being a concentration that inhibits growth.

CCCCCCCCCCCC(=O)OCC(C)(C)[N+](C)(C)C.[I-] [Example 2, (2-lauroyloxy-1,1-dimethylethyl)-trimethylammonium iodide]
antibacterial activity: strong antibacterial activity against a variety of bacteria
